Assay results taken from PubChem BioAssay AID1345082 (National Center for Advancing Translational Sciences (NCATS), 2018).
Out of some 94,000 compounds screened, about 4,000 (4.3%) were called active. Inconclusive means that the source gave no clear call. Such entries were picked first, then a sample of the others. Calls come from the whole dose curve; as a rule, active = well fitted inhibition curve with a large enough effect; inconclusive = small, poorly fitted or top-dose-only effect; inactive = no such curve, though single readings can be large or run the other way. Potencies of inconclusive entries are doubtful fits and often do not repeat.

Assay: Cytotoxic Profiling in NIH 3T3 Cell Line of Diverse Libraries Using Quantitative High-Throughput Screening; note: nearly all actives have a fitted effect of over 55% in size
Conditions: NIH 3T3 viability, CellTiter-Glo ATP luminescence, 48-72 h; series mostly up to 96.7 µM
Procedure, shortened: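 Cells were seeded at 400 per well, treated with pin-transferred compound, and kept 48 or 72 hr at 37 °C before CellTiter-Glo addition and luminescence imaging of cellular ATP.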
Potency is the fitted concentration of half-maximal effect; tags give direction and shape of the fitted curve.

Q: For `CSCCNC(=O)C1CCCN1c1nccc(Nc2ccc(C)cc2)n1` (stereo unspecified), which Potency is on record?
A: The Potency was “inactive”.

Q: With `O=C1c2c(nc(COc3ccccc3)n2Cc2ccccc2)NCCN1CC1CC1` as the molecule, how does the Potency read?
A: Its Potency is inconclusive: 89.1 µM [inhibitor, partial curve].

Q: With `CNC(=O)CCn1ncc2cc(OCc3ccccc3-c3cc(F)ccc3OC(C)C)ccc21` as the molecule, how does the Potency read?
A: The Potency was inconclusive: 44.7 µM [inhibitor, partial curve, poor fit].

Q: For `COc1ccccc1NC(=O)Cn1c(-c2ccccc2)nc(C)c(CCO)c1=O`, which Potency is on record?
A: The Potency was inconclusive: 50.1 µM [inhibitor, partial curve, poor fit].

Q: For `O=C(c1cccc(O)c1)N1CC(CNc2ccccc2)C2(C1)CN(c1ccccc1)C2` (stereo unspecified), which Potency is on record?
A: Its Potency is active: 50.1 µM.

Q: Which Potency does the source give for `COc1cccc(-c2nc(N3CCOCC3)cc3c2CN(CC(F)(F)F)C3=O)c1OC` here?
A: Its Potency is inconclusive: 56.2 µM [inhibitor, partial curve, poor fit].

Q: Which Potency does the source give for `COc1ccc(OC)c(CNC(=O)COc2ccc(NC(=O)C3CC3)cn2)c1` here?
A: The Potency was “inactive”.

Q: Which Potency does the source give for `CCCN1CCC2(Cc3ccccc3CN([S+](=O)([O-])c3ccccc3)C2)C1` (stereo unspecified) here?
A: The Potency was inconclusive: 70.8 µM [inhibitor, partial curve, poor fit].

Q: For `CCN1c2cc(C(=O)Nc3ccccc3)ccc2C(=O)N2CCCCCC21` (stereo unspecified), which Potency is on record?
A: Its Potency is inconclusive: 50.1 µM [inhibitor, partial curve, poor fit].

Q: With `O=C(NCC1Cn2cccc2C(=O)N1Cc1ccccc1)C1CCOCC1` (stereo unspecified) as the molecule, how does the Potency read?
A: The Potency was “inactive”.

Q: Which Potency does the source give for `CCOC(=O)[C@@H]1[C@@H](O)C(=O)N(Cc2ccccc2)C12CCN(C(=O)OCC(C)(C)C)CC2` here?
A: The Potency was inconclusive: 50.1 µM [inhibitor, partial curve, poor fit].

Q: For `Cc1cccc(NC(=O)Cn2ccn3nc(-c4ccc(F)cc4)c(CO)c3c2=O)c1C`, which Potency is on record?
A: Its Potency is “inactive”.

Q: Which Potency does the source give for `O=Cc1cccc(-c2ccc(O)cc2)c1` here?
A: The Potency was inconclusive: 89.1 µM [inhibitor, partial curve].

Q: For `COc1ccc(CC(=O)N2CCN(c3cc(-c4ccccc4)[nH]n3)CC2)cc1`, which Potency is on record?
A: The Potency was inconclusive: 35.5 µM [inhibitor, partial curve, poor fit].

Q: For `COCCNc1cc(-c2ccnc(SC)n2)c2cc[nH]c2n1`, which Potency is on record?
A: The Potency was inconclusive: 50.1 µM [inhibitor, partial curve, poor fit].

Q: Which Potency does the source give for `O=C(NCc1cccnc1)c1cn2cc(-c3cccc(C(F)(F)F)c3)sc2n1` here?
A: Its Potency is inconclusive: 50.1 µM [inhibitor, partial curve, poor fit].

Q: With `CC(=O)NC1(C)CCN(Cc2cccc(-c3ccc4ccccc4c3)c2)C1` (stereo unspecified) as the molecule, how does the Potency read?
A: The Potency was active: 28.2 µM.

Q: For `COc1ccc(C(=O)NC2CCCN(c3cc(-c4ccc(F)cc4)[nH]n3)C2)cc1` (stereo unspecified), which Potency is on record?
A: Its Potency is inconclusive: 50.1 µM [inhibitor, partial curve, poor fit].

Q: With `CCCc1noc(-c2cn(C3CCN(C(=O)c4cccc(N(C)C)c4)CC3)nn2)n1` as the molecule, how does the Potency read?
A: The Potency was “inactive”.

Q: Which Potency does the source give for `CCN1C[C@H]2COc3cc(OC)ccc3[C@H]2N(C(=O)COc2ccccc2)CCC1=O` here?
A: The Potency was inconclusive: 70.8 µM [inhibitor, single point].

Q: For `CSc1nccc(N2CCC3(CC2)CC(=O)N(CC(C)C)C3)n1`, which Potency is on record?
A: Its Potency is inconclusive: 11.2 µM [inhibitor, partial curve, poor fit].

Q: With `COc1cccc(N2CC(C(=O)NCCc3ccc(Cl)cc3)NC2=O)c1` (stereo unspecified) as the molecule, how does the Potency read?
A: The Potency was inconclusive: 35.5 µM [inhibitor, partial curve, poor fit].

Q: With `CC1(C)C(=O)N(Cc2ccccc2)[C@H]2CN(Cc3cccc(OC(F)(F)F)c3)C[C@@H]2[S+]1(=O)[O-]` as the molecule, how does the Potency read?
A: Its Potency is inconclusive: 50.1 µM [inhibitor, partial curve, poor fit].

Q: For `N#Cc1ccccc1S(=O)(=O)N[C@H]1CO[C@H]2[C@@H]1OC[C@@H]2n1nnnc1-c1ccccc1`, which Potency is on record?
A: Its Potency is “inactive”.

Q: For `Cn1cc(CN2CCCC(COc3ccccc3C(=O)N3CCCC3)C2)c2ccccc21` (stereo unspecified), which Potency is on record?
A: The Potency was inconclusive: 50.1 µM [inhibitor, single point].

Q: Which Potency does the source give for `CN(C)Cc1cn2c(=O)n(C)cc(-c3ccc(F)c(Cl)c3)c2n1` here?
A: Its Potency is inconclusive: 56.2 µM [inhibitor, partial curve, poor fit].

Q: Which Potency does the source give for `C#CCNC(=O)c1nc(-c2cccc(C(F)(F)F)c2)c2cnccn12` here?
A: Its Potency is inconclusive: 50.1 µM [inhibitor, partial curve, poor fit].

Q: For `Cc1cnc(C2CC2)n1C1CCCN(C(=O)c2nn(C)c3ccccc23)C1` (stereo unspecified), which Potency is on record?
A: Its Potency is inconclusive: 39.8 µM [inhibitor, partial curve].

Q: Which Potency does the source give for `Cc1cc(NC(=O)C(C)(C)Oc2nn(CC3CC3)c3ccc(CN4CCCC4)cc23)n(C)n1` here?
A: Its Potency is inconclusive: 10 µM [inhibitor, full curve, poor fit].

Q: Which Potency does the source give for `COc1ccc(CN2CCOc3nc(-c4ccc(O)c(F)c4)ncc3C2=O)cc1` here?
A: Its Potency is inconclusive: 8.91 µM [inhibitor, full curve, poor fit].

Q: With `O=C(NC1CC1)c1nc(-c2cccc(F)c2)c2cnccn12` as the molecule, how does the Potency read?
A: The Potency was inconclusive: 39.8 µM [inhibitor, full curve].

Q: Which Potency does the source give for `COc1cccc(CN2C[C@@H](Oc3ccccc3)C[C@H]2C(N)=O)c1` here?
A: Its Potency is inconclusive: 28.2 µM [inhibitor, partial curve].

Q: With `O=[S+]([O-])(c1ccccc1)N1CC2(COCCN(Cc3ccc(Cl)cc3)C2)C1` as the molecule, how does the Potency read?
A: Its Potency is inconclusive: 56.2 µM [inhibitor, partial curve, poor fit].

Q: For `Cc1ccc(CCCN2CCCC(COc3ccccc3C(=O)N3CCCCC3)C2)o1` (stereo unspecified), which Potency is on record?
A: The Potency was inconclusive: 50.1 µM [inhibitor, partial curve, poor fit].

Q: With `O=C(NCCNC(=O)c1ccc(-c2cncnc2)cc1)c1ccccc1` as the molecule, how does the Potency read?
A: Its Potency is “inactive”.

Q: Which Potency does the source give for `CCC(C)NC(=O)c1cc(-c2cccc(F)c2)nc2c1cnn2C` (stereo unspecified) here?
A: The Potency was inconclusive: 56.2 µM [inhibitor, partial curve, poor fit].

Q: For `CC(=O)Nc1ccc(CN2CCn3c(nn(-c4cccc(Cl)c4)c3=O)C2)cc1`, which Potency is on record?
A: Its Potency is inconclusive: 50.1 µM [inhibitor, partial curve, poor fit].

Q: For `COCCN1C(=O)c2ccccc2C(C(=O)Nc2nnc(CC(C)C)s2)C12CCCC2` (stereo unspecified), which Potency is on record?
A: Its Potency is “inactive”.

Q: For `COC(=O)N(C)Cc1cccc(N2CCN(Cc3c(Cl)ccc(Cl)c3Cl)CC2)c1`, which Potency is on record?
A: Its Potency is “inactive”.

Q: Which Potency does the source give for `Cn1c([C@H]2CCN(C3CCCCC3)C2)nc2ccccc21` here?
A: Its Potency is inconclusive: 141 µM [inhibitor, partial curve, poor fit].

Q: For `Cc1cc2cc(C(=O)N3CCN(c4ncccc4C#N)CC3)ccc2o1`, which Potency is on record?
A: The Potency was “inactive”.

Q: For `Cc1nn(-c2ccc(C(C)(C)C)cc2)c(C)c1[C@@H]1C=C[C@@H](NC(=O)CCC(=O)O)C1`, which Potency is on record?
A: The Potency was “inactive”.

Q: Which Potency does the source give for `Cn1ncc2c(C(=O)N3CCN(Cc4ccccc4)CC3)cc(-c3ccccc3)nc21` here?
A: The Potency was inconclusive: 50.1 µM [inhibitor, single point].

Q: With `COc1cc(-c2onc(C)c2C(=O)NCCCc2ccccc2)cc(OC)c1OC` as the molecule, how does the Potency read?
A: Its Potency is inconclusive: 50.1 µM [inhibitor, single point].

Q: Which Potency does the source give for `CCOc1cccc(CN2CCC(Oc3ccc(-c4noc(C5CC5)n4)cc3)C2)c1` (stereo unspecified) here?
A: Its Potency is inconclusive: 44.7 µM [inhibitor, partial curve, poor fit].

Q: With `CC(C)NC(=O)NC1CC2(CCN(Cc3ccc(O)cc3)CC2)c2ccccc21` (stereo unspecified) as the molecule, how does the Potency read?
A: The Potency was inconclusive: 70.8 µM [inhibitor, single point].

Q: For `Cc1ccc(Nc2ccnc(N3CCCC(C(=O)NCc4ccc5c(c4)OCO5)C3)n2)cc1` (stereo unspecified), which Potency is on record?
A: The Potency was active: 12.6 µM.

Q: With `Cc1nc2c(NC3CCN(C(=O)c4cccn4C)CC3)cccn2n1` as the molecule, how does the Potency read?
A: The Potency was inconclusive: 25.1 µM [inhibitor, full curve, poor fit].

Q: For `COCC1CN(C2CCC2)CC12CCN(C(=O)Cc1ccccc1F)CC2` (stereo unspecified), which Potency is on record?
A: Its Potency is inconclusive: 70.8 µM [inhibitor, single point].

Q: Which Potency does the source give for `CCOC(=O)C(Cc1cccc(N2CCN([S+](=O)([O-])c3c(Cl)cccc3Cl)CC2)c1)OC` (stereo unspecified) here?
A: The Potency was inconclusive: 11.2 µM [inhibitor, full curve, poor fit].

Q: With `O=C(CCC(F)(F)F)N1CCCC(CCc2c(F)cccc2F)C1` (stereo unspecified) as the molecule, how does the Potency read?
A: The Potency was inconclusive: 56.2 µM [inhibitor, partial curve, poor fit].

Q: For `Cc1ccncc1-c1c(C)nn2c1N(Cc1cccc(O)c1)CCC2`, which Potency is on record?
A: Its Potency is inconclusive: 56.2 µM [inhibitor, partial curve, poor fit].

Q: For `O=C(C1CCCN([S+](=O)([O-])c2cccc(C(F)(F)F)c2)C1)N1CCC(N2CCOC2=O)CC1` (stereo unspecified), which Potency is on record?
A: Its Potency is “inactive”.

Q: With `CC(C)c1ccc(CN2CCC3OCCN(c4ccccc4)C(=O)C3C2)cc1` (stereo unspecified) as the molecule, how does the Potency read?
A: The Potency was inconclusive: 56.2 µM [inhibitor, partial curve, poor fit].

Q: With `COc1ccc(CNC2(Cc3cc(-c4ccc(F)cc4)on3)COC2)cc1` as the molecule, how does the Potency read?
A: Its Potency is inconclusive: 112 µM [inhibitor, partial curve, poor fit].

Q: Which Potency does the source give for `COc1ccc(CN2C[C@H]3CN(S(=O)(=O)c4ccc(OC)cc4)CCN3C2=O)cc1` here?
A: The Potency was inconclusive: 56.2 µM [inhibitor, partial curve, poor fit].

Q: With `C=CCS(=O)(=O)N1CCCC(CCc2c(F)cccc2F)C1` (stereo unspecified) as the molecule, how does the Potency read?
A: Its Potency is inconclusive: 70.8 µM [inhibitor, single point].

Q: Which Potency does the source give for `COc1ccc(CN2CCC3(C2)C(=O)N(Cc2ccccc2)c2ccccc23)cc1` (stereo unspecified) here?
A: Its Potency is active: 35.5 µM.

Q: For `O=C(Cc1ccc(F)cc1)N1CCC2(CC1)CC(N(Cc1ccccc1)C1CC1)CCO2` (stereo unspecified), which Potency is on record?
A: The Potency was inconclusive: 50.1 µM [inhibitor, partial curve, poor fit].

Q: Which Potency does the source give for `CCOc1ccccc1NC(=O)c1cc2c(N3CCSCC3)nc(C)cn2n1` here?
A: Its Potency is inconclusive: 50.1 µM [inhibitor, partial curve, poor fit].

Q: With `CCOc1ccccc1NC(=O)c1cc2n(n1)CC(c1ccc(Cl)cc1)OC2` (stereo unspecified) as the molecule, how does the Potency read?
A: The Potency was “inactive”.
